Laboratory results from article PMC2946606.
Results are given in words; binding and its absence hold for the method and conditions named. Binding seen in cells or lysates may run through a third protein. Some binding calls cover weakened binding; strength is not graded here. For some assays here: Where a sequence is shown, tags or fusion partners need not be part of it.

Sequences of proteins named here, by UniProt entry; tags and fusion partners are left off. A change or cut given only in a name is not applied to a line headed by its entry. Residues count along the entry.
GST-Med1 fragment aa 980–1055 (Q925J9, residues 980-1055): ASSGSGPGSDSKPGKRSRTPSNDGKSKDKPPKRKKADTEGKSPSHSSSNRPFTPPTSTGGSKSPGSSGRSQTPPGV
GST-Med1 fragment aa 1055–1130 (Q925J9, residues 1055-1130): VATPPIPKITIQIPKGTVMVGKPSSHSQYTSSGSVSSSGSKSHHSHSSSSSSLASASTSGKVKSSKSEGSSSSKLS
GST-Med1 fragment aa 1130–1250 (Q925J9, residues 1130-1250): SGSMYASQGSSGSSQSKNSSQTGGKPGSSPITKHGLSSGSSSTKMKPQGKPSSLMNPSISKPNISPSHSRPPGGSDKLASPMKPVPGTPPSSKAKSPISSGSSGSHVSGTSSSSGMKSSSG
GST-Med1 fragment aa 1250–1370 (Q925J9, residues 1250-1370): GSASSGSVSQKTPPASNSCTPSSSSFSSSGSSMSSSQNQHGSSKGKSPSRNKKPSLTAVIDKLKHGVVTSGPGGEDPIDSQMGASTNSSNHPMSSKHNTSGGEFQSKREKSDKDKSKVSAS
GST-Med1 fragment aa 1370–1470 (Q925J9, residues 1370-1470): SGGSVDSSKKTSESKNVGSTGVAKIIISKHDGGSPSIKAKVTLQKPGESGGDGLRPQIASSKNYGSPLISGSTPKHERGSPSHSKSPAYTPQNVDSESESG
GST-ΔPBP^1470–1570 (Q925J9, residues 1470-1570): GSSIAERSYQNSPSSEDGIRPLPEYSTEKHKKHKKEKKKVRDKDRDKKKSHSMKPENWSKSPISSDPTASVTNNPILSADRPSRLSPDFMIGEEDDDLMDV
UniProt P03372: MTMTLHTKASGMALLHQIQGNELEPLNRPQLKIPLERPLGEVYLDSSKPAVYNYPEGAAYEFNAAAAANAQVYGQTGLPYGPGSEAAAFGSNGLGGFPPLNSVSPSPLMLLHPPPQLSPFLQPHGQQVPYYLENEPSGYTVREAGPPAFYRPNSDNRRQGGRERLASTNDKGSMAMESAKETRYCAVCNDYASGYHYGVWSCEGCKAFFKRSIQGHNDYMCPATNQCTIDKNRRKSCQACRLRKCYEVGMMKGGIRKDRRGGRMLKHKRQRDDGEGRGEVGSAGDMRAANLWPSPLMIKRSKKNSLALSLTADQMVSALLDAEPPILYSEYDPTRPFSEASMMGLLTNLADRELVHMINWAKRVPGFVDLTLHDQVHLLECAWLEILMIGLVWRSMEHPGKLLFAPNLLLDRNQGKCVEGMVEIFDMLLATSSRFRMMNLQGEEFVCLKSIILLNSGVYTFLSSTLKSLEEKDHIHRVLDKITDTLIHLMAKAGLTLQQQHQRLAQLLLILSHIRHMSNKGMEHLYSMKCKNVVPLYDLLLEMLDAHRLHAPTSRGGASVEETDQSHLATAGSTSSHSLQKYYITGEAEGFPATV
UniProt P19793: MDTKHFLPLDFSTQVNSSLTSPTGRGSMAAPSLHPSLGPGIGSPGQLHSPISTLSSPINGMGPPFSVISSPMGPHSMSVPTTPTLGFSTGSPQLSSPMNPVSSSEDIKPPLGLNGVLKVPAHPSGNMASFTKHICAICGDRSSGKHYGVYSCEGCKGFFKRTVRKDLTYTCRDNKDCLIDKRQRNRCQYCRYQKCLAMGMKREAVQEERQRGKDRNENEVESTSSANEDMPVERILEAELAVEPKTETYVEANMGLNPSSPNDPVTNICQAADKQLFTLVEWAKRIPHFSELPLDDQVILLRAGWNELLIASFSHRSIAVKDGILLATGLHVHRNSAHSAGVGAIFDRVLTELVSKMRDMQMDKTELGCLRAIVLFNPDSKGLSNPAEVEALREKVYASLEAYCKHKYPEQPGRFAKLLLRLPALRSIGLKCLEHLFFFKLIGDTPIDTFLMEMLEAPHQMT
UniProt P37238: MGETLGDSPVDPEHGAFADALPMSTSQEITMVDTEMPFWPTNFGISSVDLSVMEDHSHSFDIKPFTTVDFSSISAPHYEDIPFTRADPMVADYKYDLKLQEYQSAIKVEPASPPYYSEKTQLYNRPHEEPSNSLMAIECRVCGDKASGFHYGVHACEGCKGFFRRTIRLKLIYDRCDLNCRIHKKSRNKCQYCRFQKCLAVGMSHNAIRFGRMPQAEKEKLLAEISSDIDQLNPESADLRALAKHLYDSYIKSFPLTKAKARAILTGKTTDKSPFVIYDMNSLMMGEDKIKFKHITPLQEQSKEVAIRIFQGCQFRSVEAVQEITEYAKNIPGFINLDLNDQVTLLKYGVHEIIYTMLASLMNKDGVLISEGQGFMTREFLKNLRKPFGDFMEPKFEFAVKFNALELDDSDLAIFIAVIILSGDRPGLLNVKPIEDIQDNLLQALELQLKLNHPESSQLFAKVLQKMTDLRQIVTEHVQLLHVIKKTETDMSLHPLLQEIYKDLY
UniProt Q92616: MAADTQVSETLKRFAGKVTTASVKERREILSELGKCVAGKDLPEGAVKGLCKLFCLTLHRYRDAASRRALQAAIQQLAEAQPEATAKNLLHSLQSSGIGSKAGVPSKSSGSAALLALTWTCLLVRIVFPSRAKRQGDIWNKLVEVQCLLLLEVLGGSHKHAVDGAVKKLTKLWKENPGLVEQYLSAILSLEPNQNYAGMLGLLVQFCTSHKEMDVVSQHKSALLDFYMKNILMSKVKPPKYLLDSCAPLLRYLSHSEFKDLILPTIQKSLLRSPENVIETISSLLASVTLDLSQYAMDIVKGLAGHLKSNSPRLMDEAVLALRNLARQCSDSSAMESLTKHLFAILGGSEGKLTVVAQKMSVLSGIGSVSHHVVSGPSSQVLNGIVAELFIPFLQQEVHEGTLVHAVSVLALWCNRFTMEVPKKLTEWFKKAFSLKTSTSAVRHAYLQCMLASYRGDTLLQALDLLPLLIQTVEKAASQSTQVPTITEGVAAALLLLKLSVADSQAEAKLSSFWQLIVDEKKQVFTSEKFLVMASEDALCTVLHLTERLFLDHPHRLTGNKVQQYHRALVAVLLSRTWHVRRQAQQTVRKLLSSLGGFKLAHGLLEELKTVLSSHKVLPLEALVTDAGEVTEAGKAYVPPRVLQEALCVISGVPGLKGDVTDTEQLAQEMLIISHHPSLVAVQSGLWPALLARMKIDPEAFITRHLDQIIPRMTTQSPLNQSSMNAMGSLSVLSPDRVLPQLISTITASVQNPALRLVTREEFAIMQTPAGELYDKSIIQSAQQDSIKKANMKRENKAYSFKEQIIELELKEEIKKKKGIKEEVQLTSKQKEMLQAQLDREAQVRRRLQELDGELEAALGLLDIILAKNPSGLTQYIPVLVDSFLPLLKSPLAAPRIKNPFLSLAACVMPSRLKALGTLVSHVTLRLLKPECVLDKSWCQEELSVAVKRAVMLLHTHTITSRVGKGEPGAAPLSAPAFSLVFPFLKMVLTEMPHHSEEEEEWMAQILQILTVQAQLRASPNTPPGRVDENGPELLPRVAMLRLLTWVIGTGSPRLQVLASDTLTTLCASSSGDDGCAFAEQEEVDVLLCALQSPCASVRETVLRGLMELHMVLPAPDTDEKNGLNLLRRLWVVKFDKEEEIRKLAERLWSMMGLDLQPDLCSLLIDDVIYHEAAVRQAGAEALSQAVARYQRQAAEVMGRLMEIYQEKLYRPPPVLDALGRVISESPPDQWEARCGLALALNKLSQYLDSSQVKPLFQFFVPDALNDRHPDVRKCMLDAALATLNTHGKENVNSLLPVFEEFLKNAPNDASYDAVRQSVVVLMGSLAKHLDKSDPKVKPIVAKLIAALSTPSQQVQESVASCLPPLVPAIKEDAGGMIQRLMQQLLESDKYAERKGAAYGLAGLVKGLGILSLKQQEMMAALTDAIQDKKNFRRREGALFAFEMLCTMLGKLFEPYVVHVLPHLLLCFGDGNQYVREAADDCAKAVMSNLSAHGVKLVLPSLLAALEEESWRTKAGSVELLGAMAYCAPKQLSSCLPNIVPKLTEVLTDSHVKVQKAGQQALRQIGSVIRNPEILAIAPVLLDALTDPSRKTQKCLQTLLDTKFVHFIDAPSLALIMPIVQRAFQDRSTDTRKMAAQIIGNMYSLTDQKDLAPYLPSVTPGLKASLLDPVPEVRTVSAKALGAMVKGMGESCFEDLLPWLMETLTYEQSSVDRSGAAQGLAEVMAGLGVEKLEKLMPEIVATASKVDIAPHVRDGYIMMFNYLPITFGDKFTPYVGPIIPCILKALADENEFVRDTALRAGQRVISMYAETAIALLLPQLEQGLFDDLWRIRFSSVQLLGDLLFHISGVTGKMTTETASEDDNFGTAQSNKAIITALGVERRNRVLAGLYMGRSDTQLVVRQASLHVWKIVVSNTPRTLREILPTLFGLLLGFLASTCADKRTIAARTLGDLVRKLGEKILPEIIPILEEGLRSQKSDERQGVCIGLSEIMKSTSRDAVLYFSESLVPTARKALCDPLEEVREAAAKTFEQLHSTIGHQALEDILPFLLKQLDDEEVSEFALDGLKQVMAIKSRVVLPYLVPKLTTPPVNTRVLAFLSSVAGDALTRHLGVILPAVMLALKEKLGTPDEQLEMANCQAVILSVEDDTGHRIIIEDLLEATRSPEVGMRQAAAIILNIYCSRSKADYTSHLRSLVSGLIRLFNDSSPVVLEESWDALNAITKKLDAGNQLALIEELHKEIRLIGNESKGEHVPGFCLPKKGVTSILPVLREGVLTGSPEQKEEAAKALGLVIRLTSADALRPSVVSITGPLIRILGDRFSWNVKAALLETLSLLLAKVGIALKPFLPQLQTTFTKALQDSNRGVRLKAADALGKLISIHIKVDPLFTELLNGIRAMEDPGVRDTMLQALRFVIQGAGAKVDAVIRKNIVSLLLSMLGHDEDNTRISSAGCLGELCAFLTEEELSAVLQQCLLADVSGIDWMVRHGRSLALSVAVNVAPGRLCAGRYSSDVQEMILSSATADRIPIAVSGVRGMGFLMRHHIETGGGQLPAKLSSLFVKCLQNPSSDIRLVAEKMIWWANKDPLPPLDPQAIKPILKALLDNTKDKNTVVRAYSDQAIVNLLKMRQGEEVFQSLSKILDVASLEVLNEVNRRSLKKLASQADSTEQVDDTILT

How the values were obtained:
Assay in all cases: pull-down; GST or GST-fusion protein on glutathione sepharose 4B beads, incubated with in vitro translated 35S-methionine PRIC295 or its fragments, 4°C, 2 hours, gentle shaker; washed, SDS-PAGE, autoradiography; nuclear receptors without and with receptor-specific ligand (10 μM to 100 μM); only the target purified
[1] = target: GST-Med1 fragment aa 980–1055 (UniProt Q925J9)
[2] = target: GST-Med1 fragment aa 1250–1370 (UniProt Q925J9)
GST-ΔPBP^1470–1570 = GST-ΔPBP^1470–1570 (UniProt Q925J9)
GST-CAR = target: T1, GST-CAR (UniProt O35627)
T1 sequence: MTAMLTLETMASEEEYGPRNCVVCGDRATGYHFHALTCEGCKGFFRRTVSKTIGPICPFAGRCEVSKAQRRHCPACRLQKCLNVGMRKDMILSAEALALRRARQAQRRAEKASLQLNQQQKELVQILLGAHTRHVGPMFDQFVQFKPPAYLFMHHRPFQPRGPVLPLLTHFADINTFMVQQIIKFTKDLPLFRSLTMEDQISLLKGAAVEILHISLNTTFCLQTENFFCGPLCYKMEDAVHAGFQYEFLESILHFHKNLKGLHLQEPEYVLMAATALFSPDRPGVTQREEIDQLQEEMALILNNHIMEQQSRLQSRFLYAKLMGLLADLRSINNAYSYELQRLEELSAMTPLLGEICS

GST-ERα = GST-ERα (UniProt P03372)
GST-RXRα = GST-RXRα (UniProt P19793)
GST-PPARα = target: T2, GST-PPARα (UniProt P23204)
T2 sequence: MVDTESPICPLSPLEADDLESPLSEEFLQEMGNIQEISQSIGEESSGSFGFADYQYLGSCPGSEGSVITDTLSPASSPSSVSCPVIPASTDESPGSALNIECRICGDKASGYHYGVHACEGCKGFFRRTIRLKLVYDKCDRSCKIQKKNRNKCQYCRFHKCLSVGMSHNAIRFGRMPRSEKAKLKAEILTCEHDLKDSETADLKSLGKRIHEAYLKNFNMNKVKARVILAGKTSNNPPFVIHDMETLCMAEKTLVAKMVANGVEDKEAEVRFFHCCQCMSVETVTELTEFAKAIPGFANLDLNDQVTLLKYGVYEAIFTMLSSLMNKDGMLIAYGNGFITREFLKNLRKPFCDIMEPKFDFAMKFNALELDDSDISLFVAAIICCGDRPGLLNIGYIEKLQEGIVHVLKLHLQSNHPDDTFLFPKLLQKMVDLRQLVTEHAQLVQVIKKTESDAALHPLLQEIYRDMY

[3] = target: GST-Med1 fragment aa 1055–1130 (UniProt Q925J9)
[4] = target: GST-Med1 fragment aa 1370–1470 (UniProt Q925J9)
[5] = target: GST-Med1 fragment aa 1130–1250 (UniProt Q925J9)
GST-PPARγ = GST-PPARγ (UniProt P37238)

Q: What does the source list for “PRIC295 (PPARα-interacting cofactor 295), full-length, in vitro translated (from UniProt Q92616 1-2671)”?
A: binding [1]: no binding; binding [2]: no binding; binding (GST-ΔPBP^1470–1570): binds; binding (GST-CAR): binds; binding (GST-ERα): binds; binding (GST-RXRα): binds; binding (GST-PPARα): binds; binding [3]: no binding; binding [4]: no binding; binding [5]: no binding; binding (GST-PPARγ): binds
